From article PMC4324299, “Characterization of interactions between inclusion membrane proteins from Chlamydia trachomatis” (Frontiers in Cellular and Infection Microbiology, 2015)
Results are given in words; binding and its absence hold for the method and conditions named. Some binding calls cover weakened binding; strength is not graded here.

By UniProt entry, the sequences of proteins in these tests, tags left out.
UniProt P0DJI5: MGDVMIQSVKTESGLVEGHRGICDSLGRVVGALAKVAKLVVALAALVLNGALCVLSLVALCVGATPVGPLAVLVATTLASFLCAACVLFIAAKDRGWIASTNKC
UniProt O84008: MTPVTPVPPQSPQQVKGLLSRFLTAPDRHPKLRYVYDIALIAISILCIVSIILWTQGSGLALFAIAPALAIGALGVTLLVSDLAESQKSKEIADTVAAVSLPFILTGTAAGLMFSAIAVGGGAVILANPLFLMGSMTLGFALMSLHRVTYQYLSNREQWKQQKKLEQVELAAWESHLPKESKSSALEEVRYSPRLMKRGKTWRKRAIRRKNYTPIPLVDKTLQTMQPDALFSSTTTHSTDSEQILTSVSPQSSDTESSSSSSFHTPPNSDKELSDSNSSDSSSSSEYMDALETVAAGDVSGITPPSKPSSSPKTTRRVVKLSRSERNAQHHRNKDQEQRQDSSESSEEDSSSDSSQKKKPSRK
UniProt P0DJI4: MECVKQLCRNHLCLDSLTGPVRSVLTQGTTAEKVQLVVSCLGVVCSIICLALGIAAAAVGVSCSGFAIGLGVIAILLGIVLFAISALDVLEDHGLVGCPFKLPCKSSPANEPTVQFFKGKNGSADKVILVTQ
UniProt P0DJI3: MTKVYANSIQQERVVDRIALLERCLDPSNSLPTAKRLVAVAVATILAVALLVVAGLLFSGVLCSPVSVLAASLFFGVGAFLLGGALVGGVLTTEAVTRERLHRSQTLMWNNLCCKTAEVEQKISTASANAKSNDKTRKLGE
UniProt P0DPS6: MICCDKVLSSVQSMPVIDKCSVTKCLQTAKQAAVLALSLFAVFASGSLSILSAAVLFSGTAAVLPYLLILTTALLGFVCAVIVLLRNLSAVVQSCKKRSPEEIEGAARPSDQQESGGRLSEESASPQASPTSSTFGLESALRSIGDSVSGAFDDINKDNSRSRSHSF

How the values were obtained:
[1] = biological target: IncF (Ct117) (Chlamydia trachomatis (serovar D/UW-3/CX or L2)) (UniProt P0DJI5); experiment: two-hybrid; BACTH screen among a subset of 20 Inc proteins in E. coli DHT1: a pST25-inc bait with a pool of the pUT18C-inc plasmids, blue colonies sequenced; and pairwise co-transformations with β-galactosidase of eight colonies; interaction = activity at least 5 times the negative control
[2] = biological target: Ct005 (Chlamydia trachomatis (serovar D/UW-3/CX or L2)) (UniProt O84008); experiment: as above
[3] = biological target: IncE (Ct116) (Chlamydia trachomatis (serovar D/UW-3/CX or L2)) (UniProt P0DJI4); experiment: as above
[4] = biological target: Ct005 (Chlamydia trachomatis (serovar D/UW-3/CX or L2)) (UniProt O84008); experiment: two-hybrid
[5] = biological target: IncD (Ct115) (Chlamydia trachomatis (serovar D/UW-3/CX or L2)) (UniProt P0DJI3); experiment: two-hybrid; BACTH screen among a subset of 20 Inc proteins in E. coli DHT1: a pST25-inc bait with a pool of the pUT18C-inc plasmids, blue colonies sequenced; and pairwise co-transformations with β-galactosidase of eight colonies; interaction = activity at least 5 times the negative control
[6] = biological target: IncG (Ct118) (Chlamydia trachomatis (serovar D/UW-3/CX or L2)) (UniProt P0DPS6); experiment: as above
[7] = biological target: IncD (Ct115) (Chlamydia trachomatis (serovar D/UW-3/CX or L2)) (UniProt P0DJI3); experiment: two-hybrid
[8] = biological target: IncF (Ct117) (Chlamydia trachomatis (serovar D/UW-3/CX or L2)) (UniProt P0DJI5); experiment: two-hybrid

Substance | binding [1] | binding [2] | binding [3] | binding [4] | binding [5] | binding [6] | binding [7] | binding [8]
Ct005 (from UniProt O84008 1-363) | binds | binds | no binding | binds |  |  |  | 
IncD (Ct115) (from UniProt P0DJI3 1-141) | binds |  | no binding |  | binds | binds | binds | 
IncE (Ct116) (from UniProt P0DJI4 1-132) |  |  | no binding |  |  |  |  | 
IncF (Ct117) (from UniProt P0DJI5 1-104) | binds | binds | no binding |  |  |  |  | binds
IncG (Ct118) (from UniProt P0DPS6 1-167) | binds |  | no binding |  |  |  |  | 
